# About 800 (1.6%) of roughly 50,000 compounds showed an effect of 50% or more. The list shows a part of the results.
# Target: Bcl-2-like protein 10 (Homo sapiens) (UniProt Q9HD36)
# Experiment: Phenotype converters, Bcl-B/TR3 peptide binding displacement, primary biochemical FP (AID 1240);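 further: 0% = Bcl-B with tracer peptide and DMSO and 100% = tracer peptide lacking Bcl-B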
# Conditions: GST-Bcl-B / FITC-TR3 peptide fluorescence polarization; stronger effect = higher value; compound at 3.75 mg/L
# Chain of UniProt Q9HD36 (Q9HD36 whole entry, looked up): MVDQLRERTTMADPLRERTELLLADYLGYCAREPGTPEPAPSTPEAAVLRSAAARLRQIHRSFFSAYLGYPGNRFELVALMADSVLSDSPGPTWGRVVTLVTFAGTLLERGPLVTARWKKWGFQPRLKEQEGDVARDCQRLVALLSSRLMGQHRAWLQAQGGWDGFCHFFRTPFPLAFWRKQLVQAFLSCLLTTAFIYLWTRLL
row,Compound,displacement
1,CC1(C)CC(NS(=O)(=O)c2cccc([N+](=O)[O-])c2)CC(C)(C)N1,0.1%
2,CC1=NN(c2ccccc2)C(=O)C1/C=C1\C(=O)NC(=O)N(c2ccc(C)cc2)C1=O (stereo not given),6.6%
3,CCOC(=O)CCc1c(C)nc2c(C)c(-c3ccccc3)[nH]n2c1=O,7%
4,C=CCN1C(=O)/C(=C\c2ccccc2OCc2cccc3ccccc23)SC1=S,2.8%
5,O=C(Nc1cccc(-c2nc3ccccc3[nH]2)c1)c1ccncc1,17.1%
6,CCCOc1ccc(C(=O)Nc2ccc(C(C)CC)cc2)cc1 (stereo not given),28.8%
7,Cc1ccccc1-c1cc2nc(C)c(Cl)c(=O)n2[nH]1,12%
8,CC1CCN(S(=O)(=O)c2cccs2)CC1,-0.9%
9,O=C1c2ccc3c4c(ccc(c24)C(=O)N1/N=C/c1ccccc1)CC3,7.7%
10,CC(=O)Nc1ccc(S(=O)(=O)Nc2ccc3c(c2)OCCO3)cc1,-1.3%
11,COc1ccc(N(CC(=O)N/N=C/c2cccc3ccccc23)S(=O)(=O)c2ccccc2)cc1,2.7%
12,CC(C)c1ccc(C2/C(=C(\O)c3ccccc3)C(=O)C(=O)N2Cc2cccnc2)cc1 (stereo not given),-1.7%
13,CCN(CC)CC(O)Cn1c2c(c3ccccc31)CCCC2=O (stereo not given),5.1%
14,Cc1ccc2oc(-c3cc(N)ccc3O)nc2c1,5.4%
15,Oc1cnc(Nc2nc3ccccc3s2)[nH]1,2.2%
16,CCOc1cc(/C=C2/SC(=S)N(c3ccccc3)C2=O)ccc1OC(=O)c1ccco1,9.9%
17,O=C(Nc1ccc(I)cc1Cl)c1ccco1,-8.5%
18,CCOC(=O)C(CCC(=O)CC(C)C)C(=O)OCC,-4%
19,COc1ccc(Br)cc1/C=C1\C(=O)NC(=S)N(c2ccc(C)cc2)C1=O,-9.7%
20,O=C(Nc1ccc(N2CCOCC2)cc1)c1ccc(F)cc1,11.2%
21,CCCOc1c(I)cc(C2C3=C(CC(C)(C)CC3=O)OC3=C2C(=O)CC(C)(C)C3)cc1OC,15.1%
22,CCN1C(=O)/C(=c2/s/c(=C3\C=Cc4ccccc4N3CC)c(=O)n2CC)SC1=S,14.9%
23,CC(C)(C)C(=O)CC(=O)c1ccccc1,4.4%
24,Cc1ccc(Cl)cc1NC(=O)CSCC(=O)Nc1ccc2ccccc2c1,-0.2%
25,Cc1cc(/C=N/NC(=O)CC#N)c(C)n1-c1ccc(Cl)cc1,-12.8%
26,COc1ccccc1/C=C1\SC(=S)N(NC(=O)c2cccc([N+](=O)[O-])c2)C1=O,-5.7%
27,O=C1c2ccccc2NC(c2ccccc2F)N1c1ccc(Cl)cc1 (stereo not given),9.6%
28,O=C(Nc1cc(Oc2ccccc2)cc([N+](=O)[O-])c1)c1cccc(Cl)c1,1%

row,Compound,displacement
1,CCN(CC)c1ccc(N2C(=O)/C(=C/c3ccc(C)cc3)SC2=S)cc1,-7.6%
2,Cc1ccc(-n2nc3ccc(NC(=O)c4cc(Cl)ccc4I)cc3n2)cc1,7.8%
3,CCC(=O)Nc1ccc(NC(=O)COc2ccc(I)cc2)cc1,-2.1%
4,O=C1CC(N2CCN(CCO)CC2)C(=O)N1c1ccccc1 (stereo not given),7.5%
5,Oc1ccccc1-c1cc(-c2ccco2)[nH]n1,9.2%
6,O=C1CC(c2ccc(O)cc2)c2ccc3ccccc3c2N1 (stereo not given),-7.4%
7,COc1ccc(COC(=O)C2=C(C)NC3=C(C(=O)CC(C)(C)C3)C2c2coc3ccc(C)cc3c2=O)cc1 (stereo not given),-3.3%
8,CCOC(=O)N1CCN(C(=O)/C(=C/c2cccc([N+](=O)[O-])c2)NC(=O)c2ccccc2)CC1,-10.2%
9,O=C(COC(=O)c1cccc(C#Cc2ccccc2)c1)c1ccc([N+](=O)[O-])cc1,9.9%
10,COc1ccc(CNCc2cccc(Cl)c2)cc1,-7.7%
11,Cc1cc(C)c(N2C(=O)NC(=O)/C(=C/c3ccc([N+](=O)[O-])o3)C2=O)c(C)c1,45%
12,O=C(Nc1ncccn1)c1sc2ccccc2c1Cl,5.9%
13,O=[N+]([O-])c1cccc(S(=O)(=O)Nc2ccc3c(c2)OCCO3)c1,0.7%
14,O=c1[nH]c(=O)n(Cc2ccc(F)cc2)c(O)c1/C=C1\C=Nc2ccccc21,51.3%
15,Cc1csc(-c2coc3cc(OCC(=O)O)cc(C)c3c2=O)n1,-2.5%
16,CCc1ccccc1NC(=O)c1ccc(I)cc1,7.5%
17,COc1ccc(N(CC(=O)NCCSc2ccccn2)S(=O)(=O)c2ccccc2)c(OC)c1,4.2%
18,O=C(Cc1ccccc1)Nc1ccc(-c2nnc(-c3ccco3)o2)cc1,18.5%
19,COc1ccc(N(CC(=O)Nc2ccccc2)S(C)(=O)=O)c(OC)c1,7.2%
20,CCOc1ccccc1/C=C1/C(=O)NN(c2ccc(C)c(C)c2)C1=O,15.4%
21,COc1ccc(C(NC(=O)c2ccccc2F)c2ccc(OC)c(OC)c2)cc1 (stereo not given),-7%
22,CCc1ccc(NC(=O)C(=O)NCc2ccccc2Cl)cc1,3.3%
23,CCn1cc(C(=O)NN)c(=O)c2cc([N+](=O)[O-])ccc21,49.5%
24,O=C(CSc1nc2ccccc2o1)NCc1ccccc1,-6.7%
25,O=C(c1cc([N+](=O)[O-])ccc1F)N1CCN(c2cc(N3CCCCC3)c(F)cc2[N+](=O)[O-])CC1,-6.6%
26,CN(C)C(=O)c1sc2ccccc2c1Cl,7.8%
27,O=C(Nc1nnc(-c2ccc3c(c2)OCO3)s1)c1sc2ccccc2c1Cl,8%

# From PubChem BioAssay AID1240 (Sanford-Burnham Center for Chemical Genomics, 2008)
